Among all 48,000 compounds or so, about 1,200 (2.5%) were called active. About 2% were inconclusive and are not listed.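 How the source made its calls: active means activation of at least 60% and not above a set upper limit (about 1 call in 100 departs from these limits); inconclusive means activation of 40% to 60%, or above that upper limit; inactive means activation under 40%.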 Some of the results follow.
target: Probable G-protein coupled receptor 32 (Homo sapiens) (UniProt O75388); experiment: qHTS for Agonists of Human Resolvin D1 Receptor DRV1; settings: CHO-K1 GPR32 beta-arrestin PathHunter luminescence, 90 min; at 76.9 µM; stronger effect = higher value; zero percent set by DMSO-only wells; further: 0% is about no effect
How it was run: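 Readings come from a cell-based beta-arrestin complementation format: CHO-K1 GPR32 stable cells (2,500/well) treated 90 min with compounds, then beta-Gal substrate added for 1 h before chemiluminescence imaging.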

Sequence of UniProt O75388 (O75388 whole entry, looked up): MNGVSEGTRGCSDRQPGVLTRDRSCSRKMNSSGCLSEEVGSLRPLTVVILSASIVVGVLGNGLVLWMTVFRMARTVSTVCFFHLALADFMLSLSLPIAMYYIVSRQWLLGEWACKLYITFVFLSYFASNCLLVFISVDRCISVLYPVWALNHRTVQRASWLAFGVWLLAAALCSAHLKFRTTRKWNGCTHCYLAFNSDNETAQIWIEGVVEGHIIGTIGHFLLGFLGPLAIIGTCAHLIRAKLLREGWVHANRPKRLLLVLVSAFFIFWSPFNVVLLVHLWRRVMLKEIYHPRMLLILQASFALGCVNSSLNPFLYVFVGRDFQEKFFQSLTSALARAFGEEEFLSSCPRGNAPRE

activation, inactive:
Cc1ccc(CCNC(=O)c2cc3sccc3n2Cc2ccc(F)cc2)cc1 0.651%
O=C(Nc1ccc(Br)cc1)c1ccc(Br)c(S(=O)(=O)N2CCCCC2)c1 24.4%
N#C/C(=C\c1ccc(Br)cc1)c1nc(-c2cc3cc(Br)ccc3oc2=O)cs1 -10.5%
Cc1ccc(C(=O)c2cn(Cc3ccccc3F)c3cc4c(cc3c2=O)OCO4)cc1 44.5%
COC(=O)c1ccc(Cl)cc1NC(=O)N1CCC(CN2CCCC2)CC1 -17.1%
CC1(C)O[C@@H]2C[C@H]3[C@@H]4CCC5=CC(=O)C=C[C@]5(C)[C@@H]4[C@@H](O)C[C@]3(C)[C@]2(C(=O)CO)O1 6.37%
COc1cc(/C=C(\C#N)c2nc3ccc(C)cc3[nH]2)ccc1OC(C)C -1.08%
CCc1ccccc1N(C)S(=O)(=O)c1ccc2[nH]cc(C(=O)NCCOC)c(=O)c2c1 -6.9%
CCc1ccc(S(=O)(=O)c2c[nH]c3cc(OC)c(OC)cc3c2=O)cc1 -0.692%
COc1ccc2cc3cc(C(=O)NCCc4ccccc4)sc3nc2c1Cl 19.6%
Cc1ccccc1NC(=O)Cn1c(=O)n(-c2ccc(CC(=O)NCC3CCCO3)cc2)c(=O)c2ccccc21 (stereo not drawn) 5.28%
COc1ccc(-c2cc(C(F)(F)F)nc(NCc3ccccc3)n2)cc1 -18.6%
COc1cccc(NC(=O)C(=O)NCC(c2ccc3c(c2)OCO3)N2CCOCC2)c1 (stereo not drawn) -9.66%
O=C(Cn1c(=O)n(-c2ccc(Cl)cc2)c(=O)c2sc3ccccc3c21)NC1CCCCC1 8.55%
Fc1ccc(C(Nc2ccc(Cl)c(C(F)(F)F)c2)c2nnc(-c3ccccc3)o2)cc1 (stereo not drawn) -20.1%
COc1cc(OC)c(NC(=O)CCn2cccn2)cc1Cl -4.78%
CN(Cc1ccccc1)C(C(=O)NC1CCCCC1)c1ccc(Cl)cc1 (stereo not drawn) -6.64%
CC(C)c1ccc(NC(=O)c2cc3c(=O)oc4ccccc4c3s2)cc1 -6.43%
COc1ccccc1NC(=O)c1sc2cccc(Cl)c2c1Cl -6.65%
CCOc1ccc(CCNC(=O)c2cc3c(=O)n(C)c4ccccc4c3s2)cc1OCC 5.07%
CCc1ccc(OCC(=O)NCC(c2ccc(Cl)cc2)N2CCOCC2)cc1 (stereo not drawn) -10.6%
CCOC(=O)c1ccc2ncc(C(=O)OCC)c(NCCc3ccc(OC)c(OC)c3)c2c1 -22.7%
CCCC12CN3CC(C)(CN(C1)C3c1ccc(CC)cc1)C2=O (stereo not drawn) -9.47%
Cc1cccc(N2CCN(C(c3ccc(F)cc3)c3nnc(-c4ccccc4)o3)CC2)c1C (stereo not drawn) -39.4%
COc1cccc(N2CCN(C(=O)c3cnc4c(C)cccn4c3=O)CC2)c1 10.7%
O=c1cc2nc(-c3ccccc3)nc(SCc3cccc(Br)c3)n2[nH]1 -54.1%
CCN1CCN(C(=O)Cn2ncc3c4ccccc4n(Cc4ccccc4F)c3c2=O)CC1 -1.24%
Cc1cccc(NC(=O)CSc2nc3ccccc3c3nc(CCn4cncc4C)nn23)c1 13.7%
CC(C)Oc1ccc(CNC(=O)C2CCN(C(=O)N3CCOc4ccc(Cl)cc43)CC2)cc1 -2.6%
Cc1ccccc1-c1nc(NC(=O)CSc2ncnc3sc4c(c23)CCCC4)ns1 -25.7%
COc1ccc(N2CCN(C(CNC(=O)C(=O)NCc3ccc(C)cc3)c3cccnc3)CC2)cc1 (stereo not drawn) 0.429%
Cc1cccc(N2CCN(S(=O)(=O)c3ccc(F)c(C(=O)Nc4cccc(Cl)c4C)c3)CC2C)c1 (stereo not drawn) -2.03%
CCNC(=O)c1c(NC(=O)c2cc(=O)c3ccc(C)c(C)c3o2)sc2c1CCCC2 3.97%
Cc1ccc(Cl)cc1N1CCN(C(=O)C(C)n2ncn3cccc3c2=O)CC1 (stereo not drawn) 3.11%
CCCCN(CCCC)C(=O)c1cc2c(=O)n3ccccc3nc2s1 -16.2%
Cc1nn(-c2ccccc2)c2c1cc1c(=O)[nH]c(=O)nc-1n2-c1cccc(C(F)(F)F)c1 1.26%
COc1ccc(Nc2ncnc3c2cnn3C)c(OC)c1 -12.8%
O=C(NCCSc1c(-c2ccc(Cl)cc2)[nH]c2ccccc12)c1ccc(S(=O)(=O)N2CCOCC2)cc1 -8.44%
O=S(=O)(Nc1ccc(-c2ccc(N3CCCCCC3)nn2)cc1)c1ccc(C(F)(F)F)cc1 -6.77%
O=C(CN1CCN(Cc2ccc(F)cc2)C1=O)NCc1ccccc1 -2.51%
Cc1ccc2c(c1)-c1onc(C(=O)N3CCN(c4cccc(C)c4C)CC3)c1CO2 10.8%
Cc1cc(C(F)(F)F)c2c(N)c(C(=O)Nc3c(Cl)cccc3Cl)sc2n1 -18.2%
Cc1ccc(-n2nc3c(=O)n(CCCC(=O)NCc4ccc(F)cc4)nc(C)c3c2C)cc1 -8.68%
Cc1cc(C)c(S(=O)(=O)NCC(c2ccco2)N2CCN(c3ccccc3)CC2)c(C)c1 (stereo not drawn) -41.3%
COc1cccc(-n2cc(C(=O)Oc3ccc(F)cc3)c3ccccc3c2=O)c1 -24.4%
Cc1nn2c(=O)cc(COC(=O)c3ccccc3NC(=O)C(C)C)nc2s1 -19.5%
COc1cc(C(=O)Nc2cccc(OCc3cc(=O)n4c(C)csc4n3)c2)cc(OC)c1OC -2.1%
Cc1noc2ncnc(N3CCCC(C(=O)NCCC(C)C)C3)c12 (stereo not drawn) 25.6%
COc1ccc(S(=O)(=O)N2CCC(c3nnc(-c4ccccc4C)o3)CC2)c(OC)c1 15.5%
Cc1ccc(S(=O)(=O)c2c(Nc3ccccc3)sc(C(=O)c3ccc4c(c3)OCO4)c2N)cc1 -4.76%
Cc1c(Cl)ccc2sc(NC(=O)c3ccc(S(=O)(=O)N4CCCC4)cc3)nc12 7.84%
COc1ccc(-c2nc(SCC(=O)NCC3CCCO3)c(-c3ccc(Cl)cc3)[nH]2)cc1 (stereo not drawn) -14.1%
COc1ccc(OC)c(NC(=O)Cn2ccn(-c3ccc(F)cc3)c(=O)c2=O)c1 -7.75%
O=C(NCc1ccc2c(c1)CCN2C(=O)c1ccncc1)c1ccccc1Br 14.9%
COc1ccc(C)cc1S(=O)(=O)Nc1cccc(-c2ccc(N3CCCC3)nn2)c1 34.4%
CCCNC(=O)CCn1nc(-c2ccc(C)cc2)c2ccccc2c1=O -27.4%
Cc1ccc2ncc(C(=O)Nc3cccc(C(F)(F)F)c3)c(=O)n2c1 -6.64%
Cc1cc(C)cc(NC(=O)CN(C)S(=O)(=O)c2ccc3c(c2)CCC(=O)N3)c1 37.3%
Cc1cccc(C(=O)Nc2sc3c(c2C(=O)O)CCCC3)c1 32.5%
CC(=O)c1c(C)oc2ccc(N(C(=O)c3ccncc3)S(=O)(=O)c3ccc(F)cc3C)cc12 -4.62%
COc1ccc(N(CC(=O)N2CCN(c3ccc(F)cc3)CC2)S(=O)(=O)c2c(C)nn(C)c2C)cc1 -13%
CN1CCc2cc(NC(=O)Nc3cccnc3)ccc21 0.866%
COc1cccc(CNC(=O)c2cccc(NC(=O)c3nsc4ccccc34)c2)c1 -10.5%
COc1cc(Cl)c(NC(=O)CN(C)S(=O)(=O)c2ccc3[nH]c4c(c3c2)CCCC4)c(OC)c1 25.8%
CCCOc1ccc(CNC(=O)Cn2c(=O)oc3ccccc32)cc1 45.3%
COc1ccc(NS(=O)(=O)c2ccc3c(c2)n(C)c(=O)c(=O)n3C)cc1Cl 10.5%
Cc1ccc(CNC(=O)c2cnn(-c3ccc(F)cc3F)c2C2CCN(C(=O)OC(C)(C)C)CC2)cc1 -25%
CCCOc1ccc(C2C(=O)N(C3CCCCC3)CC(=O)N2CCC2=CCCCC2)cc1OC (stereo not drawn) -4.05%
COc1cccc(CNC(=O)CC(c2ccc(C)cc2)N2Cc3ccccc3C2=O)c1 (stereo not drawn) 15.2%
CCOC(=O)C(CC)Sc1nnc2[nH]c(=O)cc(C)n12 (stereo not drawn) 4.26%
COc1cccc(CNC(=O)CCS(=O)(=O)c2cc3c4c(c2)CCN4C(=O)CC3)c1 -1.75%
O=C(CSc1n[nH]c(-c2ccccc2)n1)NCCc1ccccc1 1.62%
COc1cc(-c2nc3cnccn3c2Nc2ccc(C(C)C)cc2)ccc1O 28.8%
CCOC(=O)c1cc2c(=O)n3ccccc3nc2n(CC2CCCO2)c1=NC(=O)c1ccccc1F (stereo not drawn) 18.6%
COc1ccc(CNC(=O)C(C)n2nc(C)c3sc4ccccc4c3c2=O)cc1OC (stereo not drawn) -15.9%
Cc1ccccc1NC(=O)CSc1nnc(-c2cccc(Cl)c2)o1 -9%
COc1ccccc1-c1ccnc2c(-c3ccc(Br)cc3)c(C)nn12 35.7%
CCc1ccc(Cn2c(CNS(=O)(=O)c3ccc(Cl)s3)nc3cccnc32)cc1 -34.4%
Cc1nn2c(=O)cc(COC(=O)c3ccc(NC(=O)c4ccc(C(C)(C)C)cc4)cc3)nc2s1 -11.7%
Cc1csc2nc(-c3cccc(NC(=O)c4ccccc4F)c3)cn12 17%
COC(=O)c1c(NC(=O)c2c(OC)cccc2OC)sc2c1CCCC2 -9.9%
CC1CCCCN1S(=O)(=O)c1ccc2[nH]c(=O)cc(C(=O)NCCc3ccc(Cl)cc3)c2c1 (stereo not drawn) -14.1%
CC(C)OCCCNC(=O)CN1C(=O)CSc2ccc(S(=O)(=O)N3CCOCC3)cc21 -13.1%
